Source: the supplement of paper PMC11417369
± gives the standard deviation of the averaged measurements. The list shows a part of the results.

test system: PfAP2-G AP2 domain (GST-tagged); experiment: gcPBM binding intensity (ln(normalized median fluorescence intensity)); higher = stronger DNA binding
Outline: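 Probes on an Agilent 4 × 180k array were primer-extended, double-stranded and 36 bp long, taken from intergenic genomic regions, with negative controls added. GST-tagged P. falciparum DNA-binding domains from E. coli, about 25 μg on average, were applied to the array for 1 h in 1× PBS containing 1% milk, 0.2 mg/ml BSA, 0.5% salmon testes DNA and 0.03% Triton X-100. Binding intensity, obtained after Alexa488 anti-GST antibody detection and a 488 nm scan, is the highest Masliner-normalised natural-log median intensity across replicate spots of either probe orientation.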

In order of falling “gcPBM binding intensity (ln)” value:
1. TTTTCTCTAAAAAGGTGTACAACTAATAATGCACTG [XGTACX_site6074]  11.7 ± 0.83
2. ATGGGTTAGGCGTGTACACAATTGTATGGTTTAATA [CACACA_site4812]  11.6 ± 1
3. TTAATAAAACTAACACGTACACATATATAATATTAT [XGTACX_site3260]  11.5 ± 0.98
4. ATTGTCATCATTATATGTACGTAAAAGAATATAGAT [XGTACX_site3117]  11.5 ± 1
5. TTTGTGTAGGTGTGTAGTACATATAACTTATAACAT [XGTACX_site7885]  11.5 ± 0.93
6. AAATATAATTAATGATGTACACTTATAGATATTGAT [XGTACX_site8435]  11.4 ± 0.68
7. TAATAAAATGTACACGCATGCAATAGAATATAAAGT [TGCATGCA_site905]  11.4 ± 0.95
8. TTATATGCATAAAAAGGTACACATATATAAATAAAT [XGTACX_site6894]  11.4 ± 0.77
9. GAAAGAAGCATAAATGTACACACATATTTATATATT [CACACA_site8368]  11.3 ± 0.81
10. AAACAAATAGACACTTGTACGTAAGTAAATAATTAA [XGTACX_site6157]  11.3 ± 0.86
11. AAAAAAAAAAAAAAATGTACATATATATAAATAAAA [XGTACX_site5574]  11.3 ± 0.88
12. TATGGTTTTAAAAAATGTACGCAAGTGCGTTAATTT [XGTACX_site3945]  11.3 ± 0.75
13. TTTTTTTTTTTTACATGTACATATGAATTATAATAT [XGTACX_site5016]  11.2 ± 0.78
14. GTATATTACATAAAATGTACATAAAAAGCGGAAAAG [XGTACX_site6905]  11.2 ± 0.64
15. ACATATTTTTACTTTTGTACATATTTTTTAATTTTC [XGTACX_site640]  11.1 ± 0.44
16. ATATATATATAATATTGTACGAAAAAAAATAAAAAA [XGTACX_site974]  11.1 ± 0.71
17. CAGTAGTATATACTATGTACATATTTATATTATATT [XGTACX_site4964]  11.1 ± 0.57
18. GGGTTGATATATATTTGTACATATTATTATTTATTA [XGTACX_site7116]  11 ± 0.54
19. CTTTATACATGACATAGTACCCATTTTAGATTTGAA [XGTACX_site5240]  11 ± 0.62
20. TATATATATATGTAATGTACATAAATTTTATACCTT [XGTACX_site6991]  11 ± 0.52
21. GTCCCTATAAGGGGAACACACATAAATGAATATATA [CACACA_site1024]  10.5 ± 0.44
22. TATTCTCGTTCTCATACACACAAAATATACATACAC [CACACA_site7278]  10.4 ± 0.33
23. AAGGGAAAAATATGGTTGCACTAAAAATATGTAATT [GTGCAC_site9605]  10.2 ± 0.16
24. AACAACCAAACGCACACACACAAAAAAAAAAATATA [CACACA_site6326]  10.2 ± 0.47
25. TTTATTTTAACTTGTTCACACATTTGAATAAATAAA [CACACA_site5064]  10.1 ± 0.26
26. GGGTTAATATTTACTACACACACTTAAAATATGTAT [CACACA_site47]  10.05 ± 0.092
27. ATGTATTTTTAAAAATATAAATTATGTAACTTGTGA [XGTACX_negctrl_site620]  10.1 ± 0.2
28. ATATTTATATATTGCACACAAAAAAAAAAAAAAATC [CACACA_site1629]  10.1 ± 0.3
29. GAGTGAAATATGCAAACACACACGAGAAAAATGTAT [CACACA_site3196]  10.11 ± 0.092
30. ACATTTAAAATTTATGCATGTGGTGTTTTGTATATA [TGCATGCA_site534]  10.1 ± 0.25
31. TATATTAATTATAAGACACACATATAGTAATAGAAA [CACACA_site2056]  10.02 ± 0.085
32. TATATTCATAATATTACACACGTTCATTTATTTTAA [CACACA_site2031]  10.04 ± 0.014
33. TATTTTACTTTAAAAATGGAAAAAAAAAAGAATATT [CACACA_negctrl_site1360]  9.995 ± 0.078
34. TTTTTTTGTTAAAAGGTGCTAATATATATAAGTGCT  9.96 ± 0.2
35. TTTCTATATAGATTTGCACACATAAAAATGCTTATA [CACACA_site2390]  9.95 ± 0.11
36. TTCAAATATATGTTTTCACACACAAAAGAAATGAAA [CACACA_site8671]  9.95 ± 0.19
37. AATATAAATAAACACACACACATATATATATATATT [CACACA_site2906]  9.895 ± 0.021
38. CGTGGAAAAAAAAACACACACAAAAAAAAAAAAAAA [CACACA_site3997]  9.88 ± 0.32
39. TATAATAAAATTTTTACACACTTTAAAAAAAAAAAA [CACACA_site524]  9.85 ± 0.19
40. AATAAGAAAACAAATGCACACCATTTATATAGATTA [CACACA_site8261]  9.795 ± 0.092
41. TTTATATATTTTTATCTTGATAATAATGTTTTAGAA [TGCATGCA_negctrl_site300]  9.7 ± 0.15
42. TACTGATATAATATAACCGTTTATGTGTATTTTTTA [XGTACX_negctrl_site81]  9.66 ± 0.11
43. TAATAAATAAAAATAGAACACACATATGTTTTTTTT [CACACA_site9185]  9.65 ± 0.14
44. TATGTTAAAAAAAAAAAAAAGAAAAAAATAAAAGGA [CACACA_negctrl_site119]  9.535 ± 0.035
